Several values for one entry are separate records, joined by “and”; a condition that tells them apart may be missing. Identical values can stand only once. Counter-ions that a name gives are not always drawn. ± gives the standard deviation of the averaged measurements. In all, about 3,100 compounds were measured (“mean cytoplasmic OPP incorporation (global translation) relative to DMSO”: median about 100, lowest 2% from about 56 on). This is one part of the list.
test system: U2OS; test: mean cytoplasmic OPP incorporation (global translation) relative to DMSO (% of DMSO); higher = more protein synthesis; conditions: 10 µM; 24 h
Procedure: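 Primary image-based screen in U2OS cells: compounds at 10 uM for 24 h, then a 1 h o-propargyl-puromycin (OPP) pulse, click labelling, and high-throughput microscopy. Mean cytoplasmic OPP intensity and nuclei count were normalised to DMSO wells within each plate (DMSO = 100) and averaged over triplicate plates.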

Structure (SMILES) | mean cytoplasmic OPP incorporation
Cn1sc(=O)n(Cc2ccccc2)c1=O | 105
COc1cc2c(cc1Cc1cccc(Cl)c1F)c(=O)c(C(=O)O)cn2[C@H](CO)C(C)C [Elvitegravir (GS-9137)] | 98.8
COc1ccc2cc3[n+](cc2c1OC)CCc1cc2c(cc1-3)OCO2 [Berberine HCl] | 106
CCCC[C@@H](C=O)NC(=O)OC(C)(C)C | 101
Nc1ncnc2c1ncn2[C@@H]1O[C@H](CO)C[C@H]1O [Cordycepin] | 102
COc1cc(C2Oc3ccc(C4Oc5cc(O)cc(O)c5C(=O)C4O)cc3OC2CO)ccc1O (stereo not given) [Silymarin (Silybin B)] | 105
COc1ccc2c(c1)c(CC(=O)OCC(=O)O)c(C)n2C(=O)c1ccc(Cl)cc1 [Acemetacin] | 94.1
O=C1C(O)=C(O)C(=O)C(O)=C1O [Tetrahydroxy-1,4-quinone monohydrate] | 97.8
Cc1nccn1CC1CCc2c(c3ccccc3n2C)C1=O (stereo not given) [Ondansetron Hydrochloride] | 87.4
CC(=O)NC[C@H]1CN(c2ccc(N3CCOCC3)c(F)c2)C(=O)O1 [Linezolid] | 106
CCCc1nc(C(C)(C)O)c(C(=O)OCc2oc(=O)oc2C)n1Cc1ccc(-c2ccccc2-c2nnn[nH]2)cc1 [Olmesartan medoxomil (Benicar)] | 102
Cn1c(=O)c2c(ncn2CC(O)CO)n(C)c1=O (stereo not given) [Diprophylline] | 95.3
NC(=O)c1cccnc1 [Nicotinamide] | 101 ± 6.7
CCC(C)(CN(C)C)OC(=O)c1ccccc1 (stereo not given) [Amyleine hydrochloride] | 106
CC(=C(CCO)SSCC1CCCO1)N(C=O)Cc1cnc(C)nc1N (stereo in doubt) [Fursultiamine Hydrochloride] | 105
C=C(NC(=O)C(=C)NC(=O)c1csc(C2=N[C@@H]3c4csc(n4)[C@H]4NC(=O)c5csc(n5)[C@H]([C@](C)(O)[C@@H](C)O)NC(=O)[C@H]5CSC(=N5)/C(=C/C)NC(=O)[C@H]([C@@H](C)O)NC(=O)c5csc(n5)[C@]3(CC2)NC(=O)[C@H](C)NC(=O)C(=C)NC(=O)[C@H](C)NC(=O)[C@H]([C@@H](C)CC)N[C@@H]2C=Cc3c([C@H](C)O)cc(nc3[C@H]2O)C(=O)O[C@@H]4C)n1)C(N)=O [Thiostrepton] | 73.3
CNC1(C)C2CCC(C2)C1(C)C (stereo not given) [Mecamylamine hydrochloride] | 113
Cc1c(Cn2c(C)nc3c(C(=O)O)cc(N4CCOCC4)cc32)cccc1C(F)(F)F | 101 ± 4
Nc1nc(Nc2ccc(S(N)(=O)=O)cc2)nn1C(=O)c1c(F)cccc1F | 50.1
CC(C)c1onc(-c2c(Cl)cccc2Cl)c1COc1ccc(/C=C/c2cccc(C(=O)O)c2)c(Cl)c1 | 104 and 101
C[C@@]1(O)[C@H](O)[C@@H](CO)O[C@H]1n1cnc2c(NC3CCCC3)nc(Cl)nc21 | 92
C=CCN1CCCC1CNC(=O)c1cc2nn[nH]c2cc1OC (stereo not given) [Alizapride HCl] | 98.4
NC(=O)[C@@H](CCC(F)(F)F)N(Cc1ccc(-c2ncon2)cc1F)S(=O)(=O)c1ccc(Cl)cc1 | 107
COc1ccc(CNCc2cccc3ccccc23)cc1 | 97.7
Cc1[nH]c(/C=C2\C(=O)Nc3ccc(S(=O)(=O)Cc4c(Cl)cccc4Cl)cc32)c(C)c1C(=O)N1CCC[C@@H]1CN1CCCC1 | 102 and 94.5
N#CC(=C(/N)Sc1ccccc1N)/C(C#N)=C(\N)Sc1ccccc1N | 95.8
CC1=C(C(=O)O)N2C(=O)[C@@H](NC(=O)[C@H](N)c3ccc(O)cc3)[C@H]2SC1 [Cefadroxil] | 104

Structure (SMILES) | mean cytoplasmic OPP incorporation
CC(C)(Oc1ccc(C2CC2(Cl)Cl)cc1)C(=O)O (stereo not given) [Ciprofibrate] | 83.7
CN(CCOc1ccc(-c2ccc3c(c2)OCO3)cc1C(C)(C)C)CC(=O)O | 99
N[C@@H](CSS(=O)(=O)O)C(=O)O [S-Sulfo-L-cysteine sodium salt] | 101
COc1cc2ncnc(Nc3ccc(Oc4ccccc4)cc3)c2cc1OC | 93.5
CC1CCN(CCCC(=O)c2ccc(F)cc2)CC1 [Melperone hydrochloride] | 98.7
Nc1ccc(S(N)(=O)=O)cc1 [Sulfanilamide] | 105
CCN1CCC[C@H]1CNC(=O)c1cc(S(N)(=O)=O)ccc1OC [(S)-(-)-Sulpiride] | 96.4
CCN1CCC[C@H]1CNC(=O)c1cc(S(N)(=O)=O)ccc1OC [Levosulpiride (Levogastrol)] | 106
Clc1ccc(-c2nc3sccn3c2/C=N/OCc2ccc(Cl)c(Cl)c2)cc1 | 102.1 ± 0.9
O=C1C(Cl)=C(NCCN2CCOCC2)C(=O)c2ncccc21 | 31
CCOc1nc2cccc(C(=O)OC(C)OC(=O)OC3CCCCC3)c2n1Cc1ccc(-c2ccccc2-c2nn[nH]n2)cc1 (stereo not given) [Candesartan cilexetil (Atacand)] | 118
CC(O)(C(=O)Nc1ccc(S(=O)(=O)c2ccccc2)cc1)C(F)(F)F (stereo not given) | 95.4 and 110
C1CCC2(CC1)CCNCC2 [4,4-Pentamethylenepiperidine hydrochloride] | 94.9
CC1=C(C(=O)OCCN(Cc2ccccc2)c2ccccc2)C(c2cccc([N+](=O)[O-])c2)C(P2(=O)OCC(C)(C)CO2)=C(C)N1 (stereo not given) [Efonidipine hydrochloride monoethanolate] | 112
CC(CCc1ccc(O)cc1)NCCc1ccc(O)c(O)c1 (stereo not given) [Dobutamine hydrochloride] | 97.4 ± 5.5
CCCNS(=O)(=O)Nc1ncnc(OCCOc2ncc(Br)cn2)c1-c1ccc(Br)cc1 [Macitentan] | 89
CC[C@]12CCCN3CCc4c(n(c5ccccc45)[C@@](O)(C(=O)OC)C1)[C@@H]32 [Vincamine] | 102
CSc1ccc(/C=C2/C(C)=C(CC(=O)O)c3cc(F)ccc32)cc1 [Sulindac Sulfide] | 104
CCC(C)(C)c1ccc(CC(C)CN2C[C@@H](C)O[C@@H](C)C2)cc1 (stereo not given in full) [Amorolfine HCl] | 104
CCOC(=O)c1ccc(C#Cc2ccc3c(c2)C(C)(C)CCS3)nc1 [Tazarotene (Avage)] | 103
CC(C)(C)C#Cc1cc(N(C(=O)[C@H]2CC[C@H](C)CC2)[C@H]2CC[C@H](O)CC2)c(C(=O)O)s1 | 106
CC(C)N(CCC(=O)c1ccc2ccccc2c1)Cc1ccccc1 | 105 and 110
COc1ccc(-c2cc3c(C)nc(N)nc3n([C@H]3CC[C@H](OCCO)CC3)c2=O)cn1 | 75
Cn1c(=O)c(F)c(Nc2ccc(I)cc2F)c2c(=O)n(C[C@@H](O)CO)cnc21 | 102
C/N=C(/NC#N)NCCSCc1csc(NC(=N)N)n1 [Tiotidine] | 101
CCN1/C(=C/C(C)=O)Sc2ccc(OC)cc21 | 99.1
CC(=O)OC(C)C[N+](C)(C)C (stereo not given) [Methacholine chloride] | 105

Structure (SMILES) | mean cytoplasmic OPP incorporation
CCCCOc1ccc(CC(=O)NO)cc1 [Bufexamac] | 96.7
NC[C@H]1CC[C@H](C(=O)O)CC1 [Tranexamic acid] | 47
C=CCc1ccccc1OCC(O)CNC(C)C (stereo not given) [Alprenolol hydrochloride] | 106
Cc1ccc(O)c([C@H](CCN(C(C)C)C(C)C)c2ccccc2)c1 [Tolterodine tartrate (Detrol LA)] | 105
CCCCC[C@H](CC(=O)NO)C(=O)N[C@H](C(=O)N1CCC[C@H]1CO)C(C)C [Actinonin] | 93.8
O=C(O)c1cc(=O)c2c(OCC(O)COc3cccc4oc(C(=O)O)cc(=O)c34)cccc2o1 [Cromolyn disodium salt] | 105
Cc1c(CC(C)(C)C(=O)O)n(Cc2ccc(Cl)cc2)c2ccc(F)cc12 | 99.3
CS(=O)(=O)c1ccc(Cn2c3c(c4cc(F)cc(F)c42)CCCC3CC(=O)O)cc1 (stereo not given) | 97.4
O=c1cc(CN2CCOCC2)occ1OCCCCCSc1ccnc2cc(C(F)(F)F)ccc12 | 116
CCCCCCCCCC(=O)N[C@@H](CCCN=C(N)N)C(=O)N[C@H](C(=O)N[C@@H](CCCCN)C(=O)N[C@@H](CCCN=C(N)N)C(=O)CCl)C(C)C | 108
CCOc1ccc(Cc2cc([C@@H]3O[C@H](CO)[C@@H](O)[C@H](O)[C@H]3O)ccc2Cl)cc1 [Dapagliflozin] | 102
CN(C)CCN1C(=O)c2cccc3cc(N)cc(c23)C1=O [Amonafide] | 58.8
CCN(CC)CCNC(=O)c1c(C)[nH]c(/C=C2\C(=O)Nc3ccc(Cl)cc32)c1C | 124
CN(C)CCC(c1ccccc1)c1ccccn1 (stereo not given) [Pheniramine maleate] | 105
Cc1cccc(Nc2nc(-c3ccncc3)cs2)c1 | 114
O=[N+]([O-])c1cc(Cl)ccc1S(=O)(=O)N1CCN(Cc2ccccc2)CC1 | 98.9
CCSc1ccc2c(c1)N(CCCN1CCN(C)CC1)c1ccccc1S2 [Thiethylperazine dimalate] | 114
CCCCc1nn(-c2ccccc2C(F)(F)F)c(=O)n1Cc1ccc(-c2ccccc2S(=O)(=O)NC(=O)c2sccc2C)cc1 | 97.2
CSCCC(C=O)NC(=O)C(CC(C)C)NC(=O)[C@H](CC(C)C)NC(C)=O (stereo not given in full) [Calpain Inhibitor II (ALLM)] | 109
CCCCC#Cc1nc(NC)c2ncn([C@@H]3O[C@H](CO)[C@@H](O)[C@H]3O)c2n1 | 95
Cn1cnc(N)c2ncnc1-2 [3-Methyladenine (3-MA)] | 101
Cn1cnc(N)c2ncnc1-2 [3-Methyladenine] | 121
CCN(CC)C(=O)N1CCN(C)CC1 [Diethylcarbamazine citrate] | 93.9
O=C(O)c1cc(O)c(O)c(O)c1 [Gallic acid] | 101
O=P(O)(O)C(O)(Cc1cccnc1)P(=O)(O)O [Risedronic acid (Actonel)] | 104
O=P(O)(O)C(O)(Cc1cccnc1)P(=O)(O)O [Risedronate sodium] | 99.2
